Source: PubChem BioAssay AID1476 (National Center for Advancing Translational Sciences (NCATS), 2009)
The whole screen tested about 200,000 compounds, of which about 4,500 (2.2%) were called active. Inconclusive means that the source gave no clear call. Such entries were picked first, then a sample of the others. Calls follow the shape of the dose curve; as a rule, active = well fitted inhibition curve with a large enough effect; inconclusive = small, poorly fitted or top-dose-only effect, or effect the other way; inactive = flat fitted curve, though single readings scatter. Where the call is inconclusive, the potency comes from a doubtful curve fit.
Also: nearly all actives have a fitted effect of over 40% in size.
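For max response, negative = inhibition in this document: plate controls were enzyme without inhibitor for no effect and buffer without enzyme for full effect.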
Potency is read from the fitted curve at half-maximal effect; tags tell the direction and shape of the fitted curve.

The molecules below were run against Cruzipain (Trypanosoma cruzi) (UniProt P25779) (assay: qHTS Assay for Promiscuous and Specific Inhibitors of Cruzain (without detergent)). Details: purified cruzain, Z-FR-AMC fluorescence, no detergent.
UniProt P25779, sequence (P25779 whole entry, looked up): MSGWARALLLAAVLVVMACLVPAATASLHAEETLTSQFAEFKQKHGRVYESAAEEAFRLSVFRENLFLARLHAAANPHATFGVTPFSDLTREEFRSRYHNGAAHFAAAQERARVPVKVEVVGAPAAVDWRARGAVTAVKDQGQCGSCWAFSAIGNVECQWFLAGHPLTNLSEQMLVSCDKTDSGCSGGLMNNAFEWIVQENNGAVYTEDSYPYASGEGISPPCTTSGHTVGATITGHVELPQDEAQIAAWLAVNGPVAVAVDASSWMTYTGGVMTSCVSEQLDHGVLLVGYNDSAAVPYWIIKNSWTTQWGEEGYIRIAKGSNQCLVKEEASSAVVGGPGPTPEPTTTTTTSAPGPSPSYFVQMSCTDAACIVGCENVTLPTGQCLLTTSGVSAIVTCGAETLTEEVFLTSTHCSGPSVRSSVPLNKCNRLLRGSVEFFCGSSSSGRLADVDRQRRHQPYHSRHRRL
Method in brief: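 Purified cruzain at 1.5 nM, pre-incubated 15 min with compound at room temperature in 100 mM sodium acetate pH 5.5, 5 mM DTT, 0.00005% Triton X-100. Reaction started with 2 uM Z-FR-AMC; AMC fluorescence increase over 60 s gives rate.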
In the case of Cc1ccc(NC(=O)CSCC(=O)N2c3ccccc3CCc3ccccc32)cc1, the Potency is reported as inconclusive: 39.8 µM [inhibitor, single point].
For CCOC(=O)c1ccc(CSc2nnc3cc(C)c4ccccc4n23)cc1, the Potency was inconclusive: 25.1 µM [activator, partial curve].
CC(=O)Nc1ccc(S(=O)(=O)Nc2nc3ccccc3nc2Nc2ccccc2)cc1 was tested, and the Potency was inconclusive: 31.6 µM [activator, single point].
With CCCn1c(Nc2nc3ccccc3n2C)nc2ccccc21 the Potency was active: 20 µM.
In the case of CCc1ccc(Nc2cc(C)nc3nc(Cc4ccc(Cl)cc4)nn23)cc1, the max response, negative = inhibition is reported as inactive: -16.8%.
With COc1cc(/C=C/C(=O)Nc2nnc(CC(C)C)s2)cc(OC)c1OC the Potency was inconclusive: 25.1 µM [activator, partial curve].
In the case of O=C(CSc1ncc2c(n1)-c1ccccc1N(Cc1ccc(F)cc1)S2(=O)=O)c1ccc(Br)cc1, the Potency is reported as inconclusive: 39.8 µM [inhibitor, single point].
Cc1ccc(NC(=O)C(=O)NCC(c2ccc3c(c2)OCO3)N2CCOCC2)c(C)c1 (configuration not stated) was tested, and the max response, negative = inhibition was inactive: -6.7%.
CCCN1CCN(CCNC(=O)Nc2cc(OC)cc(OC)c2)CC1 was tested, and the max response, negative = inhibition was inactive: 9.91%.
Brc1cc(Br)c2nc(-c3cccs3)ccc2c1 was tested, and the Potency was inconclusive: 31.6 µM [inhibitor, single point].
For COc1ccc(C2c3c(n(C)c4ccccc34)C(=O)N2CC(=O)Nc2ccc(Cl)cc2)cc1 (configuration not stated), the max response, negative = inhibition was inactive: -24.2%.
With CCOC(=O)c1c(C)oc2ncnc(NCCc3ccccc3)c12 the Potency was inconclusive: 39.8 µM [activator, single point].
For O=C(CN1CCN(S(=O)(=O)c2ccc(Cl)cc2)CC1)Nc1ccc(F)cc1F, the Potency was inconclusive: 25.1 µM [activator, single point].
COC(=O)c1cc2oc(C)cc2n1Cc1c(C)cc(C)cc1C was tested, and the max response, negative = inhibition was inactive: 6.1%.
In the case of CCOC(=O)/C(=N\Nc1cccc(C(F)(F)F)c1)N(CCOC)CCOC, the Potency is reported as inconclusive: 25.1 µM [activator, partial curve].
For O=S(=O)(c1ccc(S(=O)(=O)N2CCCN(Cc3ccccc3)C2)cc1)N1CCCCCC1, the Potency was inconclusive: 31.6 µM [inhibitor, single point].
In the case of Cc1ccc(C)c(OCc2nnc(NC(=O)c3ccco3)s2)c1, the Potency is reported as inconclusive: 10 µM [inhibitor, single point].
In the case of COc1ccc(CCNc2oc(-c3ccc(OC)c(OC)c3)nc2C#N)cc1, the Potency is reported as inconclusive: 39.8 µM [activator, single point].
With COc1ccccc1N1CCN(C(=O)c2oc3ccccc3c2NC(=O)C(C)Oc2ccccc2)CC1 (configuration not stated) the max response, negative = inhibition was inactive: 5.36%.
In the case of COc1cc(-c2nnc(CSc3nnc(Nc4ccc(C(C)C)cc4)s3)o2)cc(OC)c1OC, the Potency is reported as inconclusive: 39.8 µM [activator, single point].
With CCOC(=O)CCc1c(C)nc2c(c(C)nn2C(C)(C)C)c1C the Potency was inconclusive: 31.6 µM [activator, single point].
COc1ccc(CCNC(=O)c2cc(Sc3cccc(Cl)c3)nc3ccccc23)cc1OC was tested, and the Potency was inconclusive: 39.8 µM [activator, single point].
For COc1ccc2c(c1)CC(C(=O)N1CCC(C(N)=O)CC1)CO2 (configuration not stated), the max response, negative = inhibition was inactive: -6.78%.
In the case of COc1ccc2c(c1)NC(c1ccc(OCC(C)C)cc1)=NC(c1ccncc1)=N2, the max response, negative = inhibition is reported as inactive: 29.4%.
For COc1ccccc1N1CCN(S(=O)(=O)c2ccc(F)c(C(=O)Nc3ccc(C)c(F)c3)c2)CC1, the Potency was inconclusive: 31.6 µM [inhibitor, single point].
With COc1ccc(CNC(=O)C2CCCN(S(=O)(=O)c3ccc4c(c3)CCCN4C(C)=O)C2)cc1 (configuration not stated) the Potency was inconclusive: 39.8 µM [activator, single point].
CC1=CC(C)(C)Nc2ccc(OC(=O)C(Cc3ccccc3)N3C(=O)c4ccccc4C3=O)cc21 (configuration not stated) was tested, and the Potency was inconclusive: 39.8 µM [inhibitor, single point].
With O=C(CC12CC3CC(CC(C3)C1)C2)NCC(=O)OCc1cc(=O)oc2ccc3ccccc3c12 the Potency was inconclusive: 39.8 µM [inhibitor, single point].
With O=C(Cn1cc(SCc2cccc(Cl)c2)c2ccccc21)N1CCOCC1 the Potency was inconclusive: 39.8 µM [activator, single point].
For CC1CN(C(=O)N2CCC(C(=O)NC3CCCCCC3)CC2)c2cc(Cl)ccc2O1 (configuration not stated), the max response, negative = inhibition was inactive: -18.9%.
With CC(C)C[C@@H](CC(=O)N[C@@H](CCC(=O)O)CC(=O)O)NC(=O)[C@@H]1CCCC[C@H]1NC(=O)C[C@H](CCCN)NC(=O)C[C@H](CO)NC(=O)[C@@H]1CNCC[C@H]1N the max response, negative = inhibition was inactive: -3.58%.
COc1ccc(-n2c(C)cc(/C=N/Nc3nc(N4CCOCC4)nc(N4CCOCC4)n3)c2C)cc1 was tested, and the Potency was inconclusive: 25.1 µM [activator, single point].
O=C(CSCc1ccc(Cl)cc1)N/N=C/c1ccc(OCC(=O)Nc2ccccc2)cc1 was tested, and the Potency was inconclusive: 39.8 µM [inhibitor, single point].
For N=C1S/C(=C\c2cccc3ccccc23)C(=O)N1c1ccc(F)cc1, the Potency was inconclusive: 39.8 µM [inhibitor, single point].
In the case of CCOc1ccc(C(=O)CSc2nnc(N)s2)cc1, the Potency is reported as active: 25.1 µM.
CCN(CC)CCCNC(=O)c1cc(-c2ccc(OC)c(OC)c2)on1 was tested, and the max response, negative = inhibition was inactive: -5.01%.
In the case of O=C(c1ccc2c(c1)OCCO2)N(Cc1cccnc1)c1nc2ccc(F)cc2s1, the max response, negative = inhibition is reported as inactive: -4.21%.
In the case of CCOc1ccccc1N(C)C(=O)C1CCCN(c2ncnc3onc(-c4ccc(F)cc4)c23)C1 (configuration not stated), the max response, negative = inhibition is reported as inactive: 6.34%.
With CCCCOc1ccc(CNn2c(C)nc3ccccc3c2=O)cc1 the Potency was inconclusive: 25.1 µM [activator, single point].
In the case of Cc1ccc(NC(=O)CCCn2c(=O)c3cccn3c3cccnc32)c(Cl)c1, the max response, negative = inhibition is reported as inactive: -4.11%.
With CN(C)CCCNc1oc(/C=C/c2ccc(F)cc2)nc1C#N the Potency was active: 25.1 µM.
With CC(=O)c1[nH]c(C)c(C(=O)NCCc2ccc(C)cc2)c1C the Potency was inconclusive: 31.6 µM [inhibitor, single point].
